Drawing on PubChem BioAssay AID2202238 (Ras Initiative Chemistry Research Team, Frederick National …, 2025), this text covers percent labeling for 24 molecules.

The experiment has as its target GTPase KRas (Homo sapiens) (UniProt P01116). The experiment is described as follows: Covalent labelling of cysteine mutants by fragments, read by mass spectrometry (AID 2202238). Details: protein at 5 µM with 500 µM competing thiol for 1.5 h. Particulars: KRAS G12D cysteine mutants, disulfide tethering, MALDI-TOF labeling, stronger effect = higher value, fragment at 500 µM.

Setting [1] is: measured here: G75C mutant labeling.
[2] abbreviates: measured here: H94C mutant labeling.
Setting [3] is: measured here: I36C mutant labeling.
Setting [4] is: measured here: L120C mutant labeling.
Where [5] appears, read: measured here: M67C mutant labeling.
Where [6] appears, read: measured here: M72C mutant labeling.
[7] abbreviates: measured here: N86C mutant labeling.
[8] abbreviates: measured here: P121C mutant labeling.
Where [9] appears, read: measured here: S122C mutant labeling.
Setting [10] is: measured here: S136C mutant labeling.
The mark [11] stands for this setting: measured here: G60C mutant labeling.
The mark [12] stands for this setting: measured here: N26C mutant labeling.

This is one part of the list. Further columns of the screen follow, without active or inactive calls.

Sequence of UniProt P01116 (P01116 whole entry, looked up, the tested form may be a part): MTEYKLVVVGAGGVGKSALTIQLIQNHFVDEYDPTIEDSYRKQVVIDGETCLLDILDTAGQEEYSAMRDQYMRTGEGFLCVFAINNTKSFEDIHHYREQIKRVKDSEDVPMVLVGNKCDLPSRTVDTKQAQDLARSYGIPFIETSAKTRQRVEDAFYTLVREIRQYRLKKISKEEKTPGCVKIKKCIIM

As to `O=C(CCS)N1CCC(c2ccc(F)cc2Cl)CC1`, the percent labeling worked out at 21.9% under setting [1]; 21.9% under setting [2]; 18.9% under setting [3]; 15.7% under setting [4]; 18.6% under setting [5]; 46.2% under setting [6]. The percent labeling is, setting by setting: under setting [7], 20.1%; under setting [8], 18.7%; under setting [9], 14.2%; under setting [10], 28.3%.

Take `CN(c1cc(C(=O)NCCS)ccn1)C1CCCC1`: the percent labeling under setting [11] stood at 17.1%; the percent labeling under setting [1] stood at 14.8%; the percent labeling under setting [2] worked out at 12.9%; the percent labeling under setting [3] came out at 10.6%; the percent labeling under setting [4] came out at 14.7%; the percent labeling under setting [5] was found to be 14.4%. The same molecule registered a percent labeling under setting [6] of 48.1%; a percent labeling under setting [12] of 36.3%; a percent labeling under setting [7] of 10.4%; a percent labeling under setting [8] of 12%; a percent labeling under setting [9] of 11%; a percent labeling under setting [10] of 31.3%.

On to `CCc1ccc(C2COCCN2C(=O)CCS)o1` (configuration not stated), for which the percent labeling by setting is: under setting [1], 21.8%; under setting [2], 51.8%; under setting [3], 44%; under setting [4], 33.5%; under setting [5], 46.2%; under setting [6], 45%. For the same molecule, the percent labeling by setting is: under setting [7], 34.2%; under setting [8], 39.8%; under setting [9], 36%; under setting [10], 64.2%.

For the molecule `O=C(NCCS)c1cccc2ccn(Cc3ccccc3)c12`, the percent labeling is 45% under setting [11]; 14.4% under setting [1]; 19.2% under setting [2]; 14.1% under setting [3]; 14% under setting [4]; 11.7% under setting [5]. In addition, the percent labeling came to 30.1% under setting [6]; 26.3% under setting [12]; 13.4% under setting [7]; 14.6% under setting [8]; 9.9% under setting [9]; 15.3% under setting [10].

On to `COCCn1cc(C(=O)NCCS)c(=O)cc1C`, for which the percent labeling runs as follows: under setting [11], 32%; under setting [1], 13.3%; under setting [2], 31.7%; under setting [3], 22.2%; under setting [4], 46.9%; under setting [5], 37.6%. For the same molecule, the percent labeling runs as follows: under setting [6], 41.6%; under setting [12], 34.2%; under setting [7], 24.3%; under setting [8], 29.7%; under setting [9], 32.9%; under setting [10], 49.3%.

As to `COC(=O)c1cnc(CC2CCN(C(=O)CCS)CC2)s1`, the percent labeling is, setting by setting: under setting [1], 15%; under setting [2], 33.9%; under setting [3], 35.4%; under setting [4], 31.1%; under setting [5], 40.5%; under setting [6], 32.5%. Besides, the percent labeling turned out to be 26.5% under setting [7], 33.2% under setting [8], 32% under setting [9] and 53.1% under setting [10].

In the case of `O=C(CCS)NCc1cnc(-c2ccccc2)[nH]1`, the percent labeling stood at 16% under setting [1]; 24.3% under setting [2]; 32.4% under setting [3]; 36.7% under setting [4]; 57.6% under setting [5]; 33.2% under setting [6]. Moreover, the percent labeling runs as follows: under setting [7], 21.7%; under setting [8], 39.3%; under setting [9], 34.5%; under setting [10], 48.7%.

In the case of `CN(C)C(=O)Cc1ccc(S(=O)(=O)N2CCC(C(=O)NCCS)CC2)cc1`, the percent labeling by setting is: under setting [11], 28.7%; under setting [1], 16.6%; under setting [2], 29.6%; under setting [3], 27.6%; under setting [4], 31.1%; under setting [5], 31.4%. The molecule further had a percent labeling under setting [6] of 18.8%; a percent labeling under setting [12] of 39.7%; a percent labeling under setting [7] of 25.7%; a percent labeling under setting [8] of 29.8%; a percent labeling under setting [9] of 31.3%; a percent labeling under setting [10] of 41.9%.

Consider `O=C(CCS)NCc1noc2cc(F)ccc12`, for which the percent labeling by setting is: under setting [1], 26.2%; under setting [2], 36%; under setting [3], 39.6%; under setting [4], 28.9%; under setting [5], 40.2%; under setting [6], 43.3%. Further, the percent labeling came to 31.2% under setting [7], 31.6% under setting [8], 31.2% under setting [9] and 45.4% under setting [10].

Consider `O=C(Cc1cc2cc(Cl)ccc2[nH]1)NCCS`, for which the percent labeling is, setting by setting: under setting [11], 28.3%; under setting [1], 8.9%; under setting [2], 12.9%; under setting [3], 9.6%; under setting [4], 14.6%; under setting [5], 8.6%. For the same molecule, the percent labeling reads like this: under setting [6], 18.1%; under setting [12], 21%; under setting [7], 8.2%; under setting [8], 10.7%; under setting [9], 8%; under setting [10], 11.1%.

Turning to `O=C(NCCS)C1CCN(S(=O)(=O)N2CCCCC2)CC1`, the percent labeling under setting [11] worked out at 28.2%; the percent labeling under setting [1] stood at 12.1%; the percent labeling under setting [2] turned out to be 29.3%; the percent labeling under setting [3] came out at 20.2%; the percent labeling under setting [4] was found to be 26.2%; the percent labeling under setting [5] came to 23.1%. Also, the percent labeling was found to be 18.4% under setting [6]; 33.2% under setting [12]; 21.7% under setting [7]; 19.6% under setting [8]; 20.1% under setting [9]; 25.4% under setting [10].

On to `CC(C)(C)C(=O)N1CCOC(C(=O)NCCS)C1` (configuration not stated), for which the percent labeling runs as follows: under setting [11], 19.2%; under setting [1], 9.4%; under setting [2], 31.1%; under setting [3], 20.9%; under setting [4], 34.8%; under setting [5], 25.8%. Besides, the percent labeling worked out at 11.5% under setting [6]; 31.7% under setting [12]; 23.6% under setting [7]; 29.1% under setting [8]; 32.1% under setting [9]; 45.8% under setting [10].

Take `O=C(CCS)N1CCC(c2n[nH]c(=O)o2)CC1`: the percent labeling runs as follows: under setting [1], 8.8%; under setting [2], 22%; under setting [3], 29.1%; under setting [4], 26.1%; under setting [5], 29.8%; under setting [6], 13.2%. Moreover, the percent labeling runs as follows: under setting [7], 27.9%; under setting [8], 35.4%; under setting [9], 36.4%; under setting [10], 50%.

Regarding `O=C(NCCS)c1cc(-c2ccn[nH]2)ccc1F`, the percent labeling came to 57.9% under setting [11]; 25.3% under setting [1]; 34.8% under setting [2]; 22.3% under setting [3]; 33% under setting [4]; 32.3% under setting [5]. Moreover, the percent labeling under setting [6] worked out at 62%; the percent labeling under setting [12] is 53.6%; the percent labeling under setting [7] was 32.5%; the percent labeling under setting [8] was found to be 31.4%; the percent labeling under setting [9] amounted to 26.5%; the percent labeling under setting [10] stood at 49.5%.

Take `O=C(CCc1sccc1Br)NCCS`: the percent labeling by setting is: under setting [11], 60.1%; under setting [1], 27.4%; under setting [2], 33%; under setting [3], 22.6%; under setting [4], 38.3%; under setting [5], 44.1%. The percent labeling worked out at 50% under setting [6]; 37.7% under setting [12]; 25.3% under setting [7]; 33% under setting [8]; 24.3% under setting [9]; 36.3% under setting [10].

With `CC(C)Cc1nnc(NC(=O)CN(C)C(=O)CCS)s1`, the percent labeling runs as follows: under setting [1], 14.7%; under setting [2], 30.5%; under setting [3], 37.2%; under setting [4], 46.1%; under setting [5], 32.8%; under setting [6], 51.6%. The molecule also had a percent labeling under setting [7] of 33.1%, a percent labeling under setting [8] of 31.7%, a percent labeling under setting [9] of 31.1% and a percent labeling under setting [10] of 49%.

`COC(=O)C1CC2(CCS(=O)(=O)CC2)CN1C(=O)CCS` (configuration not stated) yielded a percent labeling under setting [1] of 5%; a percent labeling under setting [2] of 26.9%; a percent labeling under setting [3] of 25.8%; a percent labeling under setting [4] of 23.3%; a percent labeling under setting [5] of 30.3%; a percent labeling under setting [6] of 7.5%. Moreover, the percent labeling reads like this: under setting [7], 13.4%; under setting [8], 29.7%; under setting [9], 27.4%; under setting [10], 41.8%.

Consider `O=C(CCS)NC1CCCOC1c1ccncc1` (configuration not stated), for which the percent labeling was determined as 12.3% under setting [1]; 25.7% under setting [2]; 38.4% under setting [3]; 21.5% under setting [4]; 37.5% under setting [5]; 11.5% under setting [6]. Further, the percent labeling reads like this: under setting [7], 12.7%; under setting [8], 29.7%; under setting [9], 30.9%; under setting [10], 45.3%.

With `O=C(NCCS)c1cnc(-c2ccoc2)s1`, the percent labeling stood at 1.4% under setting [11]; 0% under setting [1]; 0% under setting [2]; 2.4% under setting [3]; 3.3% under setting [4]; 4.8% under setting [5]. The percent labeling was 0% under setting [6]; 10.4% under setting [12]; 0% under setting [7]; 0% under setting [8]; 8% under setting [9]; 6.6% under setting [10].

In the case of `COc1cc(Br)c(CCNC(=O)CCS)cc1OC`, the percent labeling reads like this: under setting [1], 11.8%; under setting [2], 32.4%; under setting [3], 30.1%; under setting [4], 23%; under setting [5], 33.3%; under setting [6], 33.8%. Moreover, the percent labeling is, setting by setting: under setting [7], 20.7%; under setting [8], 23%; under setting [9], 18.9%; under setting [10], 45.4%.

Take `O=C(CCS)N1CCn2cc(Br)cc2C1`: the percent labeling by setting is: under setting [1], 0%; under setting [2], 10.9%; under setting [3], 0%; under setting [4], 6.8%; under setting [5], 7.6%; under setting [6], 0%. For the same molecule, the percent labeling is, setting by setting: under setting [7], 3.3%; under setting [8], 7.8%; under setting [9], 6.6%; under setting [10], 7.3%.

Take `O=C(CCS)N1CCC(CN2CCCCC2=O)CC1`: the percent labeling by setting is: under setting [1], 10.6%; under setting [2], 31.3%; under setting [3], 34.8%; under setting [4], 36.9%; under setting [5], 35.8%; under setting [6], 17.8%. For the same molecule, the percent labeling by setting is: under setting [7], 22.1%; under setting [8], 33.2%; under setting [9], 38.7%; under setting [10], 57%.

Take `COc1cc(CNC(=O)CCS)ccc1OC(F)F`: the percent labeling reads like this: under setting [1], 13.3%; under setting [2], 42.2%; under setting [3], 44.7%; under setting [4], 31.2%; under setting [5], 37.8%; under setting [6], 40.5%. The percent labeling under setting [7] was determined as 35.1%, the percent labeling under setting [8] was 14%, the percent labeling under setting [9] is 34.3% and the percent labeling under setting [10] was found to be 52.7%.

With `O=C(NCCS)c1cc(-c2cccc(F)c2)no1`, the percent labeling is, setting by setting: under setting [11], 5.6%; under setting [1], 0%; under setting [2], 4.8%; under setting [3], 5.3%; under setting [4], 8.1%; under setting [5], 6.8%. The percent labeling is 36% under setting [6]; 14.4% under setting [12]; 0% under setting [7]; 0% under setting [8]; 7.5% under setting [9]; 11.4% under setting [10].
